# Experimental data: the supplement of paper PMC8728848
# This is one part of the list.
# B1: CVN-E41G (protein)
# chain: MHHHHHHENLYFQSGNFSQACYNSAIQGSVLTSTCIRTNGGYNTSSIDLNSVIGNVDGSLKWQGSNFIETCRNTQLAGSSELAAECKTRAQQFVSTKINLDDHIAAIDGTLKYE
# Tests used:
# Test in all cases: glycan array binding signal (z-score within array); higher = stronger binding
# Conditions in all cases: glycan notation: IUPAC condensed, linker removed; mutation: E41G
# Glc(b1-4)Glc = molecular target: Glc(b1-4)Glc
# How it was run: (§1)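 Negative Z-scores can be read as non-binding. The Z-score is calculated within each array and then averaged across arrays of one protein sequence at different concentrations or buffers and across linkers. Arrays, 3228 in all, were curated from the Consortium for Functional Glycomics database and kept only where the protein sequence was available.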
# Glc(b1-6)Glc = molecular target: Glc(b1-6)Glc
# How it was run: as §1
# GlcA(b1-3)Gal = molecular target: GlcA(b1-3)Gal
# How it was run: as §1
# GlcA(b1-3)GlcNAc = molecular target: GlcA(b1-3)GlcNAc
# How it was run: as §1
# GlcA(b1-6)Gal = molecular target: GlcA(b1-6)Gal
# How it was run: as §1
# [1] = molecular target: GlcA3S(b1-3)Gal(b1-4)GlcNAc(b1-2)Man
# How it was run: as §1
# [2] = molecular target: GlcA3S(b1-3)Gal(b1-4)GlcNAc(b1-3)Gal(b1-4)Glc
# How it was run: as §1
# [3] = molecular target: GlcNAc(a1-3)Gal(b1-4)GlcNAc
# How it was run: as §1
# [4] = molecular target: GlcNAc(a1-4)Gal(b1-3)GlcNAc
# How it was run: as §1
# [5] = molecular target: GlcNAc(a1-4)Gal(b1-4)GalNAc
# How it was run: as §1
# [6] = molecular target: GlcNAc(a1-4)Gal(b1-4)GlcNAc
# How it was run: as §1
# [7] = molecular target: GlcNAc(a1-4)Gal(b1-4)GlcNAc(b1-3)Gal(b1-4)Glc
# How it was run: as §1
# [8] = molecular target: GlcNAc(a1-4)Gal(b1-4)GlcNAc(b1-3)Gal(b1-4)GlcNAc
# How it was run: as §1
# [9] = molecular target: GlcNAc(a1-4)Gal(b1-4)GlcNAc(b1-3)Gal(b1-4)GlcNAc(b1-3)Gal(b1-4)GlcNAc
# How it was run: as §1
# [10] = molecular target: GlcNAc(a1-4)Gal(b1-4)GlcNAc(b1-3)Gal(b1-4)[Fuc(a1-3)]GlcNAc(b1-3)Gal(b1-4)[Fuc(a1-3)]GlcNAc
# How it was run: as §1
# [11] = molecular target: GlcNAc(a1-6)Gal(b1-4)GlcNAc
# How it was run: as §1
# [12] = molecular target: GlcNAc(b1-2)Gal(b1-3)GalNAc
# How it was run: as §1
# [13] = molecular target: GlcNAc(b1-2)Man(a1-3)[GlcNAc(b1-2)Man(a1-6)]Man(b1-4)GlcNAc(b1-4)GlcNAc
# How it was run: as §1
# [14] = molecular target: GlcNAc(b1-2)Man(a1-3)[GlcNAc(b1-2)Man(a1-6)]Man(b1-4)GlcNAc(b1-4)[Fuc(a1-6)]GlcNAc
# How it was run: as §1
# [15] = molecular target: GlcNAc(b1-2)Man(a1-3)[GlcNAc(b1-4)][GlcNAc(b1-2)Man(a1-6)]Man(b1-4)GlcNAc(b1-4)GlcNAc
# How it was run: as §1
# [16] = molecular target: GlcNAc(b1-2)Man(a1-3)[GlcNAc(b1-4)][GlcNAc(b1-2)Man(a1-6)]Man(b1-4)GlcNAc(b1-4)[Fuc(a1-6)]GlcNAc
# How it was run: as §1
# [17] = molecular target: GlcNAc(b1-2)[GlcNAc(b1-4)]Man(a1-3)[GlcNAc(b1-2)Man(a1-6)]Man(b1-4)GlcNAc(b1-4)GlcNAc
# How it was run: as §1
# [18] = molecular target: GlcNAc(b1-2)[GlcNAc(b1-4)]Man(a1-3)[GlcNAc(b1-4)][GlcNAc(b1-2)Man(a1-6)]Man(b1-4)GlcNAc(b1-4)GlcNAc
# How it was run: as §1
# [19] = molecular target: GlcNAc(b1-2)[GlcNAc(b1-4)]Man(a1-3)[GlcNAc(b1-4)][GlcNAc(b1-2)[GlcNAc(b1-6)]Man(a1-6)]Man(b1-4)GlcNAc(b1-4)GlcNAc
# How it was run: as §1
# [20] = molecular target: GlcNAc(b1-2)[GlcNAc(b1-4)]Man(a1-3)[GlcNAc(b1-4)][GlcNAc(b1-2)[GlcNAc(b1-6)]Man(a1-6)]Man(b1-4)GlcNAc(b1-4)[Fuc(a1-6)]GlcNAc
# How it was run: as §1
# [21] = molecular target: GlcNAc(b1-2)[GlcNAc(b1-6)]Man(a1-6)[GlcNAc(b1-2)Man(a1-3)]Man(b1-4)GlcNAc(b1-4)GlcNAc
# How it was run: as §1
# [22] = molecular target: GlcNAc(b1-2)[GlcNAc(b1-6)]Man(a1-6)[GlcNAc(b1-2)Man(a1-3)]Man(b1-4)GlcNAc(b1-4)[Fuc(a1-6)]GlcNAc
# How it was run: as §1
# [23] = molecular target: GlcNAc(b1-2)[GlcNAc(b1-6)]Man(a1-6)[GlcNAc(b1-4)][GlcNAc(b1-2)Man(a1-3)]Man(b1-4)GlcNAc(b1-4)GlcNAc
# How it was run: as §1
# GlcNAc(b1-3)Fuc = molecular target: GlcNAc(b1-3)Fuc
# How it was run: as §1
# GlcNAc(b1-3)Gal = molecular target: GlcNAc(b1-3)Gal
# How it was run: as §1
# [24] = molecular target: GlcNAc(b1-3)Gal(b1-3)GalNAc
# How it was run: as §1
# GlcNAc(b1-3)Gal(b1-4)Glc = molecular target: GlcNAc(b1-3)Gal(b1-4)Glc
# How it was run: as §1
# [25] = molecular target: GlcNAc(b1-3)Gal(b1-4)GlcNAc
# How it was run: as §1
# [26] = molecular target: GlcNAc(b1-3)Gal(b1-4)GlcNAc(b1-2)Man(a1-3)[GlcNAc(b1-3)Gal(b1-4)GlcNAc(b1-2)Man(a1-6)]Man(b1-4)GlcNAc(b1-4)GlcNAc
# How it was run: as §1
# [27] = molecular target: GlcNAc(b1-3)Gal(b1-4)GlcNAc(b1-2)Man(a1-3)[GlcNAc(b1-3)Gal(b1-4)GlcNAc(b1-2)Man(a1-6)]Man(b1-4)GlcNAc(b1-4)[Fuc(a1-6)]GlcNAc
# How it was run: as §1
# [28] = molecular target: GlcNAc(b1-3)Gal(b1-4)GlcNAc(b1-2)[GlcNAc(b1-3)Gal(b1-4)GlcNAc(b1-6)]Man(a1-6)[GlcNAc(b1-3)Gal(b1-4)GlcNAc(b1-2)Man(a1-3)]Man(b1-4)GlcNAc(b1-4)GlcNAc
# How it was run: as §1
# [29] = molecular target: GlcNAc(b1-3)Gal(b1-4)GlcNAc(b1-3)Gal(b1-4)GlcNAc
# How it was run: as §1
# [30] = molecular target: GlcNAc(b1-3)Gal(b1-4)GlcNAc(b1-3)Gal(b1-4)GlcNAc(b1-2)Man(a1-3)[GlcNAc(b1-3)Gal(b1-4)GlcNAc(b1-3)Gal(b1-4)GlcNAc(b1-2)Man(a1-6)]Man(b1-4)GlcNAc(b1-4)GlcNAc
# How it was run: as §1
# [31] = molecular target: GlcNAc(b1-3)Gal(b1-4)GlcNAc(b1-3)Gal(b1-4)GlcNAc(b1-2)Man(a1-3)[GlcNAc(b1-3)Gal(b1-4)GlcNAc(b1-3)Gal(b1-4)GlcNAc(b1-2)Man(a1-6)]Man(b1-4)GlcNAc(b1-4)[Fuc(a1-6)]GlcNAc
# How it was run: as §1
# [32] = molecular target: GlcNAc(b1-3)Gal(b1-4)GlcNAc(b1-3)Gal(b1-4)GlcNAc(b1-2)[GlcNAc(b1-3)Gal(b1-4)GlcNAc(b1-3)Gal(b1-4)GlcNAc(b1-6)]Man(a1-6)[GlcNAc(b1-3)Gal(b1-4)GlcNAc(b1-3)Gal(b1-4)GlcNAc(b1-2)Man(a1-3)]Man(b1-4)GlcNAc(b1-4)[Fuc(a1-6)]GlcNAc
# How it was run: as §1
# [33] = molecular target: GlcNAc(b1-3)Gal(b1-4)GlcNAc(b1-3)Gal(b1-4)GlcNAc(b1-3)Gal(b1-4)GlcNAc(b1-2)Man(a1-3)[GlcNAc(b1-3)Gal(b1-4)GlcNAc(b1-3)Gal(b1-4)GlcNAc(b1-3)Gal(b1-4)GlcNAc(b1-2)Man(a1-6)]Man(b1-4)GlcNAc(b1-4)GlcNAc
# How it was run: as §1
# [34] = molecular target: GlcNAc(b1-3)Gal(b1-4)GlcNAc(b1-3)Gal(b1-4)GlcNAc(b1-3)Gal(b1-4)GlcNAc(b1-2)Man(a1-3)[GlcNAc(b1-3)Gal(b1-4)GlcNAc(b1-3)Gal(b1-4)GlcNAc(b1-3)Gal(b1-4)GlcNAc(b1-2)Man(a1-6)]Man(b1-4)GlcNAc(b1-4)[Fuc(a1-6)]GlcNAc
# How it was run: as §1
# [35] = molecular target: GlcNAc(b1-3)Gal(b1-4)GlcNAc(b1-3)Gal(b1-4)GlcNAc(b1-3)Gal(b1-4)GlcNAc(b1-2)[GlcNAc(b1-3)Gal(b1-4)GlcNAc(b1-3)Gal(b1-4)GlcNAc(b1-3)Gal(b1-4)GlcNAc(b1-6)]Man(a1-6)[GlcNAc(b1-3)Gal(b1-4)GlcNAc(b1-3)Gal(b1-4)GlcNAc(b1-3)Gal(b1-4)GlcNAc(b1-2)Man(a1-3)]Man(b1-4)GlcNAc(b1-4)[Fuc(a1-6)]GlcNAc
# How it was run: as §1
# [36] = molecular target: GlcNAc(b1-3)Gal(b1-4)GlcNAc(b1-3)Gal(b1-4)GlcNAc(b1-3)Gal(b1-4)GlcNAc(b1-3)Gal(b1-4)GlcNAc(b1-2)Man(a1-3)[GlcNAc(b1-3)Gal(b1-4)GlcNAc(b1-3)Gal(b1-4)GlcNAc(b1-3)Gal(b1-4)GlcNAc(b1-3)Gal(b1-4)GlcNAc(b1-2)Man(a1-6)]Man(b1-4)GlcNAc(b1-4)GlcNAc
# How it was run: as §1
# [37] = molecular target: GlcNAc(b1-3)Gal(b1-4)GlcNAc(b1-3)Gal(b1-4)GlcNAc(b1-3)Gal(b1-4)GlcNAc(b1-3)Gal(b1-4)GlcNAc(b1-2)Man(a1-3)[GlcNAc(b1-3)Gal(b1-4)GlcNAc(b1-3)Gal(b1-4)GlcNAc(b1-3)Gal(b1-4)GlcNAc(b1-3)Gal(b1-4)GlcNAc(b1-2)Man(a1-6)]Man(b1-4)GlcNAc(b1-4)[Fuc(a1-6)]GlcNAc
# How it was run: as §1
binder,measurement,setting,value
B1,glycan array binding signal (z-score),Glc(b1-4)Glc,-0.079
same,glycan array binding signal (z-score),Glc(b1-6)Glc,-0.107
same,glycan array binding signal (z-score),GlcA(b1-3)Gal,-0.158
same,glycan array binding signal (z-score),GlcA(b1-3)GlcNAc,-0.162
same,glycan array binding signal (z-score),GlcA(b1-6)Gal,-0.134
same,glycan array binding signal (z-score),[1],-0.137
same,glycan array binding signal (z-score),[2],-0.171
same,glycan array binding signal (z-score),[3],-0.155
same,glycan array binding signal (z-score),[4],-0.187
same,glycan array binding signal (z-score),[5],-0.158
same,glycan array binding signal (z-score),[6],-0.192
same,glycan array binding signal (z-score),[7],-0.169
same,glycan array binding signal (z-score),[8],-0.156
same,glycan array binding signal (z-score),[9],-0.178
same,glycan array binding signal (z-score),[10],-0.111
same,glycan array binding signal (z-score),[11],-0.168
same,glycan array binding signal (z-score),[12],-0.147
same,glycan array binding signal (z-score),[13],-0.168
same,glycan array binding signal (z-score),[14],-0.097
same,glycan array binding signal (z-score),[15],-0.265
same,glycan array binding signal (z-score),[16],-0.136
same,glycan array binding signal (z-score),[17],-0.154
same,glycan array binding signal (z-score),[18],-0.148
same,glycan array binding signal (z-score),[19],-0.166
same,glycan array binding signal (z-score),[20],-0.166
same,glycan array binding signal (z-score),[21],-0.145
same,glycan array binding signal (z-score),[22],-0.158
same,glycan array binding signal (z-score),[23],-0.165
same,glycan array binding signal (z-score),GlcNAc(b1-3)Fuc,-0.135
same,glycan array binding signal (z-score),GlcNAc(b1-3)Gal,-0.178
same,glycan array binding signal (z-score),[24],-0.16
same,glycan array binding signal (z-score),GlcNAc(b1-3)Gal(b1-4)Glc,-0.169
same,glycan array binding signal (z-score),[25],-0.17
same,glycan array binding signal (z-score),[26],-0.152
same,glycan array binding signal (z-score),[27],-0.073
same,glycan array binding signal (z-score),[28],-0.026
same,glycan array binding signal (z-score),[29],-0.172
same,glycan array binding signal (z-score),[30],-0.1
same,glycan array binding signal (z-score),[31],-0.138
same,glycan array binding signal (z-score),[32],-0.107
same,glycan array binding signal (z-score),[33],-0.133
same,glycan array binding signal (z-score),[34],-0.114
same,glycan array binding signal (z-score),[35],-0.124
same,glycan array binding signal (z-score),[36],-0.067
same,glycan array binding signal (z-score),[37],0.084
